According to the supplement of paper PMC8728848:
The other results are listed elsewhere or left out.

Key:
Assay in all cases: glycan array binding signal (z-score within array); higher = stronger binding
Conditions in all cases: glycan notation: IUPAC condensed, linker removed
Gal(a1-3)Gal = biological target: Gal(a1-3)Gal
Summary of the method: (§1)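 Columns mapping to the same glycan were averaged after glycan names were converted to IUPAC-condensed notation. The data come from 3228 arrays in the Consortium for Functional Glycomics database, limited to those with an available protein sequence. Binding is reported as a within-array Z-score averaged across arrays of one protein sequence and across linkers.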

Gal(a1-3)Gal(b1-3)GlcNAc = biological target: Gal(a1-3)Gal(b1-3)GlcNAc
Summary of the method: as §1

[1] = biological target: Gal(a1-3)Gal(b1-3)GlcNAc(b1-2)Man
Summary of the method: as §1

[2] = biological target: Gal(a1-3)Gal(b1-3)GlcNAc(b1-2)Man(a1-3)[Gal(a1-3)Gal(b1-3)GlcNAc(b1-2)Man(a1-6)]Man(b1-4)GlcNAc(b1-4)GlcNAc
Summary of the method: as §1

[3] = biological target: Gal(a1-3)Gal(b1-3)GlcNAc(b1-3)GalNAc
Summary of the method: as §1

[4] = biological target: Gal(a1-3)Gal(b1-3)GlcNAc(b1-6)GalNAc
Summary of the method: as §1

[5] = biological target: Gal(a1-3)Gal(b1-3)[Fuc(a1-4)]GlcNAc(b1-2)Man(a1-3)[Gal(a1-3)Gal(b1-3)[Fuc(a1-4)]GlcNAc(b1-2)Man(a1-6)]Man(b1-4)GlcNAc(b1-4)GlcNAc
Summary of the method: as §1

Gal(a1-3)Gal(b1-4)Glc = biological target: Gal(a1-3)Gal(b1-4)Glc
Summary of the method: as §1

Gal(a1-3)Gal(b1-4)GlcNAc = biological target: Gal(a1-3)Gal(b1-4)GlcNAc
Summary of the method: as §1

[6] = biological target: Gal(a1-3)Gal(b1-4)GlcNAc(b1-2)Man
Summary of the method: as §1

[7] = biological target: Gal(a1-3)Gal(b1-4)GlcNAc(b1-2)Man(a1-3)[Gal(a1-3)Gal(b1-4)GlcNAc(b1-2)Man(a1-6)]Man(b1-4)GlcNAc(b1-4)GlcNAc
Summary of the method: as §1

[8] = biological target: Gal(a1-3)Gal(b1-4)GlcNAc(b1-3)GalNAc
Summary of the method: as §1

[9] = biological target: Gal(a1-3)Gal(b1-4)GlcNAc(b1-6)GalNAc
Summary of the method: as §1

[10] = biological target: Gal(a1-3)Gal(b1-4)[Fuc(a1-3)]GlcNAc
Summary of the method: as §1

[11] = biological target: Gal(a1-3)Gal(b1-4)[Fuc(a1-3)]GlcNAc(b1-2)Man(a1-3)[Gal(a1-3)Gal(b1-4)[Fuc(a1-3)]GlcNAc(b1-2)Man(a1-6)]Man(b1-4)GlcNAc(b1-4)GlcNAc
Summary of the method: as §1

Gal(a1-3)GalNAc = biological target: Gal(a1-3)GalNAc
Summary of the method: as §1

[12] = biological target: Gal(a1-3)[Gal(a1-4)]Gal(b1-4)GlcNAc
Summary of the method: as §1

[13] = biological target: Gal(a1-4)Gal(b1-3)GlcNAc(b1-2)Man(a1-3)[Gal(a1-4)Gal(b1-3)GlcNAc(b1-2)Man(a1-6)]Man(b1-4)GlcNAc(b1-4)GlcNAc
Summary of the method: as §1

Gal(a1-4)Gal(b1-4)Glc = biological target: Gal(a1-4)Gal(b1-4)Glc
Summary of the method: as §1

Gal(a1-4)Gal(b1-4)GlcNAc = biological target: Gal(a1-4)Gal(b1-4)GlcNAc
Summary of the method: as §1

[14] = biological target: Gal(a1-4)Gal(b1-4)GlcNAc(b1-2)Man(a1-3)[Gal(a1-4)Gal(b1-4)GlcNAc(b1-2)Man(a1-6)]Man(b1-4)GlcNAc(b1-4)GlcNAc
Summary of the method: as §1

[15] = biological target: Gal(a1-4)Gal(b1-4)GlcNAc(b1-3)Gal(b1-4)Glc
Summary of the method: as §1

Gal(a1-4)GlcNAc = biological target: Gal(a1-4)GlcNAc
Summary of the method: as §1

Gal(a1-6)Glc = biological target: Gal(a1-6)Glc
Summary of the method: as §1

Gal(b1-2)Gal = biological target: Gal(b1-2)Gal
Summary of the method: as §1

Gal(b1-3)Gal = biological target: Gal(b1-3)Gal
Summary of the method: as §1

Gal(b1-3)Gal(b1-4)GlcNAc = biological target: Gal(b1-3)Gal(b1-4)GlcNAc
Summary of the method: as §1

Gal(b1-3)GalNAc = biological target: Gal(b1-3)GalNAc
Summary of the method: as §1

[16] = biological target: Gal(b1-3)GalNAc(a1-3)[Fuc(a1-2)]Gal(b1-4)Glc
Summary of the method: as §1

[17] = biological target: Gal(b1-3)GalNAc(a1-3)[Fuc(a1-2)]Gal(b1-4)GlcNAc
Summary of the method: as §1

Gal(b1-3)GalNAc(b1-3)Gal = biological target: Gal(b1-3)GalNAc(b1-3)Gal
Summary of the method: as §1

[18] = biological target: Gal(b1-3)GalNAc(b1-3)Gal(a1-4)Gal(b1-4)Glc
Summary of the method: as §1

[19] = biological target: Gal(b1-3)GalNAc(b1-4)Gal(b1-4)Glc
Summary of the method: as §1

[20] = biological target: Gal(b1-3)GalNAc(b1-4)[Neu5Ac(a2-3)]Gal(b1-4)Glc
Summary of the method: as §1

Gal(b1-3)GlcNAc = biological target: Gal(b1-3)GlcNAc
Summary of the method: as §1

[21] = biological target: Gal(b1-3)GlcNAc(a1-3)Gal(b1-4)GlcNAc
Summary of the method: as §1

[22] = biological target: Gal(b1-3)GlcNAc(a1-6)Gal(b1-4)GlcNAc
Summary of the method: as §1

Gal(b1-3)GlcNAc(b1-2)Man = biological target: Gal(b1-3)GlcNAc(b1-2)Man
Summary of the method: as §1

B1: MGL (Homo sapiens), Q8IUN9 (protein)
chain: MTRTYENFQYLENKVKVQGFKNGPLPLQSLLQRLCSGPCHLLLSLGLGLLLLVIICVVGFQNSKFQRDLVTLRTDFSNFTSNTVAEIQALTSQGSSLEETIASLKAEVEGFKQERQAGVSELQEHTTQKAHLGHCPHCPSVCVPVHSEMLLRVQQLVQDLKKLTCQVATLNNNASTEGTCCPVNWVEHQDSCYWFSHSGMSWAEAEKYCQLKNAHLVVINSREEQNFVQKYLGSAYTWMGLSDPEGAWKWVDGTDYATGFQNWKPGQPDDWQGHGLGGGEDCAHFHPDGRWNDDVCQRPYHWVCEAGLGQTSQESH
glycan array binding signal (z-score) (Gal(a1-3)Gal): -0.235
glycan array binding signal (z-score) (Gal(a1-3)Gal(b1-3)GlcNAc): -0.235
glycan array binding signal (z-score) [1]: -0.236
glycan array binding signal (z-score) [2]: -0.24
glycan array binding signal (z-score) [3]: -0.241
glycan array binding signal (z-score) [4]: 3.37
glycan array binding signal (z-score) [5]: -0.216
glycan array binding signal (z-score) (Gal(a1-3)Gal(b1-4)Glc): -0.24
glycan array binding signal (z-score) (Gal(a1-3)Gal(b1-4)GlcNAc): -0.248
glycan array binding signal (z-score) [6]: -0.252
glycan array binding signal (z-score) [7]: -0.246
glycan array binding signal (z-score) [8]: -0.243
glycan array binding signal (z-score) [9]: 3.79
glycan array binding signal (z-score) [10]: -0.244
glycan array binding signal (z-score) [11]: -0.242
glycan array binding signal (z-score) (Gal(a1-3)GalNAc): -0.208
glycan array binding signal (z-score) [12]: -0.22
glycan array binding signal (z-score) [13]: -0.239
glycan array binding signal (z-score) (Gal(a1-4)Gal(b1-4)Glc): 0.107
glycan array binding signal (z-score) (Gal(a1-4)Gal(b1-4)GlcNAc): -0.232
glycan array binding signal (z-score) [14]: -0.236
glycan array binding signal (z-score) [15]: -0.247
glycan array binding signal (z-score) (Gal(a1-4)GlcNAc): -0.249
glycan array binding signal (z-score) (Gal(a1-6)Glc): -0.247
glycan array binding signal (z-score) (Gal(b1-2)Gal): -0.271
glycan array binding signal (z-score) (Gal(b1-3)Gal): -0.252
glycan array binding signal (z-score) (Gal(b1-3)Gal(b1-4)GlcNAc): -0.245
glycan array binding signal (z-score) (Gal(b1-3)GalNAc): -0.242
glycan array binding signal (z-score) [16]: -0.232
glycan array binding signal (z-score) [17]: -0.251
glycan array binding signal (z-score) (Gal(b1-3)GalNAc(b1-3)Gal): -0.249
glycan array binding signal (z-score) [18]: 0.394
glycan array binding signal (z-score) [19]: -0.269
glycan array binding signal (z-score) [20]: 0.605
glycan array binding signal (z-score) (Gal(b1-3)GlcNAc): -0.247
glycan array binding signal (z-score) [21]: -0.245
glycan array binding signal (z-score) [22]: -0.241
glycan array binding signal (z-score) (Gal(b1-3)GlcNAc(b1-2)Man): -0.235
